Source: patent US7488491B2, “Use of glycosylceramides as adjuvants for vaccines against infections and cancer” (New York University, priority 2001, dated 2009)

How the values were obtained:
[1] = tested on: CS-specific CD4+ and CD8+ T cells (P. yoelii CS protein); experiment: ELISPOT assay of CS-specific CD4+ and CD8+ T cells from immunized mice
[2] = tested on: P. yoelii sporozoites; experiment: Parasite rRNA in the liver after live sporozoite challenge of immunized mice (real-time RT-PCR); conditions: BALB/c mice; 0.5, 1, 2 μg α-GalCer with 1×10^4 γ-spz i.v.

CCCCCCCCCCCCCCCCCCCCCCCCCC(=O)N[C@@H](CO[C@H]1O[C@H](CO)[C@H](O)[C@H](O)[C@H]1O)[C@H](O)[C@H](O)CCCCCCCCCCCCCC [α-GalCer, (2S,3S,4R)-1—O-(α-D-galactopyranosyl)-2-(N-hexacosanoylamino)-1,3,4-octadecanetriol]
duration of the CS-specific CD8+ T cell response ([1]; BALB/c, 1×10^5 γ-spz with or without α-GalCer, two to six weeks): prolonged the duration | number of IFN-γ-secreting CS-specific CD4+ T cells ([1]; BALB/c, 1×10^5 γ-spz with α-GalCer, two weeks): significantly increased | CS-specific T cell responses, α-GalCer two days before or two days after peptide immunization ([1]; BALB/c, peptide immunization): significantly enhance | number of CS-specific CD4+ and CD8+ T cells secreting IFN-γ, peptide-immunized mice, vs no α-GalCer ([1]; BALB/c, s.c. 10 mg synthetic CD8+ or CD4+ epitope peptide, α-GalCer same time, lymph node cells, ten days): significantly higher | enhancement of T cell responses, α-GalCer two days prior to or two days after γ-spz ([1]; γ-spz immunization): not observed | numbers of CS-specific CD4+ or CD8+ T cells secreting IL-4 ([1]; γ-spz with or without α-GalCer): No difference | level of protective immunity (% inhibition of the liver stage development) elicited by γ-spz [2]: significantly enhanced, in a dose-dependent manner
